Results published in the supplement of paper PMC4604168 (melanoma cell lines).
Some of the results follow. Many values rest on one well or one pass, so single values are uncertain.

Columns and labels:
Experiment in all cases: cell count relative to DMSO control; melanoma cells; higher = more viable cells
Conditions in all cases: library dose: standard library concentration; 72 h
[1] = system: G361
[2] = system: IPC-298
[3] = system: IST-MEL1
[4] = system: LOXIMVI
[5] = system: MEL-HO
[6] = system: MeWo
[7] = system: RPMI7951
[8] = system: RVH-421
[9] = system: SkMel28
[10] = system: SkMel2
[11] = system: SkMel30
[12] = system: SkMel5
[13] = system: UACC257
[14] = system: UACC62
[15] = system: WM115
[16] = system: WM1716
[17] = system: WM1745
[18] = system: WM3526
[19] = system: LB2518-MEL
[20] = system: MZ2-MEL
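Further: cells treated in 1,536-well plates, then fixed and DAPI-stained, with nuclei counted from automated high-throughput microscope images.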

SMILES	cell count [1]	cell count [2]	cell count [3]	cell count [4]	cell count [5]	cell count [6]	cell count [7]	cell count [8]	cell count [9]	cell count [10]	cell count [11]	cell count [12]	cell count [13]	cell count [14]	cell count [15]	cell count [16]	cell count [17]	cell count [18]	cell count [19]	cell count [20]
CC(=O)O[C@@]12CO[C@@H]1C[C@H](O)[C@@]1(C)C(=O)[C@H](O)C3=C(C)[C@@H](OC(=O)[C@H](O)[C@@H](NC(=O)OC(C)(C)C)c4ccccc4)C[C@@](O)([C@@H](OC(=O)c4ccccc4)[C@H]21)C3(C)C [Docetaxel] + C[As](C)SC[C@H](NC(=O)CC[C@H](N)C(=O)O)C(=O)NCC(=O)O [Darinaparsin] (first compound 0.0005 µM, partner dose 2 µM)	14.9%	41.8%	37.9%	63.4%	38.9%	20.4%	21.1%	55.2%	19.9%	19.4%	43.4%	32.2%	72.7%	50.9%	36.2%	33.9%	32.6%	34.9%		
OCc1c[nH]c2ccccc12 [Indole-3-carbinol] + C/C(O)=C(\C#N)C(=O)Nc1cc(Br)ccc1Br [LFM-A13] (first compound 4 µM, partner dose 10 µM)	97.3%	94.3%	90.4%	28.8%	93.9%	75.3%	73.8%	106%	72.6%	83.8%	102%	110%	90.9%	166%	119%	118%		97.1%	94.1%	98.3%
CC(=O)O[C@@]12CO[C@@H]1C[C@H](O)[C@@]1(C)C(=O)[C@H](O)C3=C(C)[C@@H](OC(=O)[C@H](O)[C@@H](NC(=O)OC(C)(C)C)c4ccccc4)C[C@@](O)([C@@H](OC(=O)c4ccccc4)[C@H]21)C3(C)C [Docetaxel] + Cc1cc(SCc2sc(-c3ccc(C(F)(F)F)c(F)c3)nc2C)ccc1OCC(=O)O [GW0742] (first compound 0.0005 µM, partner dose 10 µM)	16.2%	52.5%	41.6%	72.2%	47.4%	28.9%	19.2%	47%	14.3%	19.1%	38.6%	28.8%	61%	50.5%	48.5%	36.9%		42.4%	47.9%	50.5%
Nc1ncn([C@H]2C[C@H](O)[C@@H](CO)O2)c(=O)n1 [decitabine] + O=C(Oc1ccc([N+](=O)[O-])cc1)N1CCC(C(O)(c2ccc3c(c2)OCO3)c2ccc3c(c2)OCO3)CC1 [JZL184] (first compound 0.5 µM, partner dose 5 µM)	79.3%	55.2%	80%	94.3%	65.3%	69.4%	83.4%	80.8%	90.3%	105%	96.4%	65.8%	101%	57.7%	70.8%	65%		77%	111%	74.8%
O=c1[nH]nc(Sc2ncc([N+](=O)[O-])s2)n1-c1ccc2c(c1)OCCO2 + O=C(Oc1ccc([N+](=O)[O-])cc1)N1CCC(C(O)(c2ccc3c(c2)OCO3)c2ccc3c(c2)OCO3)CC1 [JZL184] (first compound 1 µM, partner dose 5 µM)	109%	91.1%	98.8%	102%	103%	94.4%	84%	94.2%	71%	94.1%	98.4%	64.1%	87.7%	71.9%	89.8%	78.7%		81.2%	101%	100%
Cc1ccc(Nc2nccc(N(C)c3ccc4c(C)n(C)nc4c3)n2)cc1S(N)(=O)=O [Pazopanib] + Cc1cc(SCc2sc(-c3ccc(C(F)(F)F)c(F)c3)nc2C)ccc1OCC(=O)O [GW0742] (first compound 2 µM, partner dose 10 µM)	83.5%	64.1%	92.3%	98.6%	80.9%	96.5%	91.6%	97.3%	73.4%	99.2%	83.5%	87.4%	78.2%	86.8%	74.6%	81%		83.8%	84%	61.2%
Cc1cc(SCc2sc(-c3ccc(C(F)(F)F)c(F)c3)nc2C)ccc1OCC(=O)O + COc1cc2ncnc(Nc3ccc(Oc4ccccc4)cc3)c2cc1OC [SrcI1] (first compound 10 µM, partner dose 10 µM)	69.2%	72.8%	85.6%	77.5%	76.4%	81.4%	71.6%	112%	92.2%	108%	88.8%	66.4%	82.2%	87.4%	88.3%	93.6%	70.2%	58%		
C=C(c1ccc(C(=O)O)cc1)c1cc2c(cc1C)C(C)(C)CCC2(C)C [Bexarotene] + O=C(Oc1ccc([N+](=O)[O-])cc1)N1CCC(C(O)(c2ccc3c(c2)OCO3)c2ccc3c(c2)OCO3)CC1 [JZL184] (first compound 10 µM, partner dose 5 µM)	85.1%	87.3%	98%	106%	87.1%	79.1%	68.7%	95.5%	77.5%	94%	98.1%	79.1%	76.5%	81.7%	126%	77%		100%	154%	103%
C[C@]1(O)C[C@@H](c2nc(-c3ccc4ccc(-c5ccccc5)nc4c3)c3c(N)nccn32)C1 + O=C(Oc1ccc([N+](=O)[O-])cc1)N1CCC(C(O)(c2ccc3c(c2)OCO3)c2ccc3c(c2)OCO3)CC1 [JZL184] (first compound 2 µM, partner dose 5 µM)	84.5%	97.5%	94.5%	106%	100%	77.9%	101%	109%	97%	96%	107%	81.2%	93.4%	86.3%	97.9%	73.6%		72.1%	108%	111%
COc1cc([C@@H]2c3cc4c(cc3[C@@H](O[C@@H]3O[C@@H]5CO[C@@H](C)O[C@H]5[C@H](O)[C@H]3O)[C@H]3COC(=O)[C@H]23)OCO4)cc(OC)c1O [etoposide] + O=C(Oc1ccc([N+](=O)[O-])cc1)N1CCC(C(O)(c2ccc3c(c2)OCO3)c2ccc3c(c2)OCO3)CC1 [JZL184] (first compound 0.1 µM, partner dose 5 µM)	85.8%	85.4%	103%	126%	83.6%	75%	77.3%	96.4%	75.5%	76.7%	93.3%	63.6%	85%	53.8%	78%	66.6%		78.6%	84.4%	87.5%
C[C@@H](N)c1ccc(C(=O)Nc2ccnc3[nH]ccc23)cc1 + O=C(Oc1ccc([N+](=O)[O-])cc1)N1CCC(C(O)(c2ccc3c(c2)OCO3)c2ccc3c(c2)OCO3)CC1 [JZL184] (first compound 2 µM, partner dose 5 µM)	94%	111%	88.1%	96.4%	77.4%	66.5%	53.4%	61.6%	76.1%	89.5%	106%	54.3%	71.1%	61.1%	90.5%	61.5%		82.5%	127%	57.8%
Nc1ncn([C@H]2C[C@H](O)[C@@H](CO)O2)c(=O)n1 [decitabine] + Cc1cc(SCc2sc(-c3ccc(C(F)(F)F)c(F)c3)nc2C)ccc1OCC(=O)O [GW0742] (first compound 0.5 µM, partner dose 10 µM)	88.4%	68.9%	77.8%	91.5%	84.3%	60.4%	57.6%	89%	97%	104%	98.7%	98.3%	102%	74%	79.3%	78.9%		95.4%	85.7%	80.5%
C=CCNC1=C2C[C@@H](C)C[C@H](OC)[C@H](O)[C@@H](C)/C=C(\C)[C@H](OC(N)=O)[C@@H](OC)/C=C\C=C(/C)C(=O)NC(=CC1=O)C2=O [Tanespimycin] + O=C(Oc1ccc([N+](=O)[O-])cc1)N1CCC(C(O)(c2ccc3c(c2)OCO3)c2ccc3c(c2)OCO3)CC1 [JZL184] (first compound 0.01 µM, partner dose 5 µM)	83%	90.9%	52.8%	137%	88.2%	66.7%	23.6%	91.9%	71.5%	105%	97.6%	62%	96.2%	35%	47.5%	83.5%		71.8%	76.7%	133%
